# Results published in the supplement of paper PMC8728848.
# The list shows a part of the results.
# B1: Jacalin (Artocarpus integrifolia) (protein)
# chain: MAYSSLLSLSVLALLFSISSADTRKWFLANGINQNPIGIIEAAVGVSEDLLNLNGMEAKNDEQSGISQTVIVGPWGAKVSTSSNGKAFDDGAFTGIREINLSYNKETAIGDFQVVYDLNGSPYVGQNHKSFITGFTPVKISLDFPSEYIMEVSGYTGNVSGYVVVRSLTFKTNKKTYGPYGVTSGTPFNLPIENGLIVGFKGSIGYWLDYFSMYLSL
# Tests used:
# Test in all cases: glycan array binding signal (z-score within array); higher = stronger binding
# Conditions in all cases: glycan notation: IUPAC condensed, linker removed
# [1] = biological target: Neu5Ac(a2-6)Gal(b1-4)GlcNAc(b1-2)Man(a1-3)[Neu5Ac(a2-6)Gal(b1-4)GlcNAc(b1-2)Man(a1-6)]Man(b1-4)GlcNAc(b1-4)GlcNAc
# In short: (§1)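 The Consortium for Functional Glycomics database supplied 3228 glycan arrays, of which those lacking an available protein sequence were dropped. The binding signal, a within-array Z-score, was averaged across arrays of the same protein sequence and across linkers. Negative scores can be read as non-binding.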
# [2] = biological target: Neu5Ac(a2-6)Gal(b1-4)GlcNAc(b1-2)Man(a1-3)[Neu5Ac(a2-6)Gal(b1-4)GlcNAc(b1-2)Man(a1-6)]Man(b1-4)GlcNAc(b1-4)[Fuc(a1-6)]GlcNAc
# In short: as §1
# [3] = biological target: Neu5Ac(a2-6)Gal(b1-4)GlcNAc(b1-2)Man(a1-6)Man(b1-4)GlcNAc(b1-4)GlcNAc
# In short: as §1
# [4] = biological target: Neu5Ac(a2-6)Gal(b1-4)GlcNAc(b1-2)Man(a1-6)[Gal(b1-4)GlcNAc(b1-2)Man(a1-3)]Man(b1-4)GlcNAc(b1-4)GlcNAc
# In short: as §1
# [5] = biological target: Neu5Ac(a2-6)Gal(b1-4)GlcNAc(b1-2)Man(a1-6)[GlcNAc(b1-2)Man(a1-3)]Man(b1-4)GlcNAc(b1-4)GlcNAc
# In short: as §1
# [6] = biological target: Neu5Ac(a2-6)Gal(b1-4)GlcNAc(b1-2)Man(a1-6)[Man(a1-3)]Man(b1-4)GlcNAc(b1-4)GlcNAc
# In short: as §1
# [7] = biological target: Neu5Ac(a2-6)Gal(b1-4)GlcNAc(b1-2)[Neu5Ac(a2-6)Gal(b1-4)GlcNAc(b1-4)]Man(a1-3)[GlcNAc(b1-4)][Neu5Ac(a2-6)Gal(b1-4)GlcNAc(b1-2)[Neu5Ac(a2-6)Gal(b1-4)GlcNAc(b1-6)]Man(a1-6)]Man(b1-4)GlcNAc(b1-4)GlcNAc
# In short: as §1
# [8] = biological target: Neu5Ac(a2-6)Gal(b1-4)GlcNAc(b1-2)[Neu5Ac(a2-6)Gal(b1-4)GlcNAc(b1-4)]Man(a1-3)[GlcNAc(b1-4)][Neu5Ac(a2-6)Gal(b1-4)GlcNAc(b1-4)Man(a1-6)]Man(b1-4)GlcNAc(b1-4)GlcNAc
# In short: as §1
# [9] = biological target: Neu5Ac(a2-6)Gal(b1-4)GlcNAc(b1-2)[Neu5Ac(a2-6)Gal(b1-4)GlcNAc(b1-6)]Man(a1-6)[Neu5Ac(a2-6)Gal(b1-4)GlcNAc(b1-2)Man(a1-3)][GlcNAc(b1-4)]Man(b1-4)GlcNAc(b1-4)GlcNAc
# In short: as §1
# [10] = biological target: Neu5Ac(a2-6)Gal(b1-4)GlcNAc(b1-3)Gal(b1-3)GlcNAc
# In short: as §1
# [11] = biological target: Neu5Ac(a2-6)Gal(b1-4)GlcNAc(b1-3)Gal(b1-4)GlcNAc
# In short: as §1
# [12] = biological target: Neu5Ac(a2-6)Gal(b1-4)GlcNAc(b1-3)Gal(b1-4)GlcNAc(b1-2)Man(a1-3)[Neu5Ac(a2-6)Gal(b1-4)GlcNAc(b1-3)Gal(b1-4)GlcNAc(b1-2)Man(a1-6)]GalNAc
# In short: as §1
# [13] = biological target: Neu5Ac(a2-6)Gal(b1-4)GlcNAc(b1-3)Gal(b1-4)GlcNAc(b1-3)Gal(b1-4)GlcNAc
# In short: as §1
# [14] = biological target: Neu5Ac(a2-6)Gal(b1-4)GlcNAc(b1-3)Gal(b1-4)GlcNAc(b1-3)Gal(b1-4)GlcNAc(b1-2)Man(a1-3)[Neu5Ac(a2-6)Gal(b1-4)GlcNAc(b1-3)Gal(b1-4)GlcNAc(b1-3)Gal(b1-4)GlcNAc(b1-2)Man(a1-6)]GalNAc
# In short: as §1
# [15] = biological target: Neu5Ac(a2-6)Gal(b1-4)GlcNAc(b1-3)Gal(b1-4)GlcNAc(b1-3)GalNAc
# In short: as §1
# [16] = biological target: Neu5Ac(a2-6)Gal(b1-4)GlcNAc(b1-3)Gal(b1-4)GlcNAc(b1-3)[Neu5Ac(a2-6)Gal(b1-4)GlcNAc(b1-3)Gal(b1-4)GlcNAc(b1-6)]GalNAc
# In short: as §1
# [17] = biological target: Neu5Ac(a2-6)Gal(b1-4)GlcNAc(b1-3)Gal(b1-4)GlcNAc(b1-6)[Gal(b1-3)]GalNAc
# In short: as §1
# [18] = biological target: Neu5Ac(a2-6)Gal(b1-4)GlcNAc(b1-3)Gal(b1-4)[Fuc(a1-3)]GlcNAc(b1-3)Gal(b1-4)[Fuc(a1-3)]GlcNAc
# In short: as §1
# [19] = biological target: Neu5Ac(a2-6)Gal(b1-4)GlcNAc(b1-3)GalNAc
# In short: as §1
# [20] = biological target: Neu5Ac(a2-6)Gal(b1-4)GlcNAc(b1-3)[Neu5Ac(a2-6)Gal(b1-4)GlcNAc(b1-6)]GalNAc
# In short: as §1
# [21] = biological target: Neu5Ac(a2-6)Gal(b1-4)GlcNAc(b1-6)GalNAc
# In short: as §1
# [22] = biological target: Neu5Ac(a2-6)Gal(b1-4)GlcNAc(b1-6)[Gal(b1-3)GlcNAc(b1-3)]Gal(b1-4)Glc
# In short: as §1
# [23] = biological target: Neu5Ac(a2-6)Gal(b1-4)GlcNAc(b1-6)[Gal(b1-3)]GalNAc
# In short: as §1
# [24] = biological target: Neu5Ac(a2-6)Gal(b1-4)GlcNAc6S
# In short: as §1
# Neu5Ac(a2-6)GalNAc = biological target: Neu5Ac(a2-6)GalNAc
# In short: as §1
# [25] = biological target: Neu5Ac(a2-6)GalNAc(b1-4)GlcNAc
# In short: as §1
# [26] = biological target: Neu5Ac(a2-6)GalNAc(b1-4)GlcNAc6S
# In short: as §1
# [27] = biological target: Neu5Ac(a2-6)GlcNAc(b1-4)GlcNAc
# In short: as §1
# [28] = biological target: Neu5Ac(a2-6)GlcNAc(b1-4)GlcNAc(b1-4)GlcNAc
# In short: as §1
# Neu5Ac(a2-8)Neu5Ac = biological target: Neu5Ac(a2-8)Neu5Ac
# In short: as §1
# [29] = biological target: Neu5Ac(a2-8)Neu5Ac(a2-3)Gal(b1-3)GalNAc(b1-4)[Neu5Ac(a2-3)]Gal(b1-4)Glc
# In short: as §1
# [30] = biological target: Neu5Ac(a2-8)Neu5Ac(a2-3)Gal(b1-3)GalNAc(b1-4)[Neu5Ac(a2-8)Neu5Ac(a2-3)]Gal(b1-4)Glc
# In short: as §1
# [31] = biological target: Neu5Ac(a2-8)Neu5Ac(a2-3)Gal(b1-4)Glc
# In short: as §1
# [32] = biological target: Neu5Ac(a2-8)Neu5Ac(a2-3)Gal(b1-4)GlcNAc
# In short: as §1
# [33] = biological target: Neu5Ac(a2-8)Neu5Ac(a2-3)[Gal(b1-3)GalNAc(b1-4)]Gal(b1-4)Glc
# In short: as §1
# [34] = biological target: Neu5Ac(a2-8)Neu5Ac(a2-3)[GalNAc(b1-4)]Gal(b1-4)Glc
# In short: as §1
# [35] = biological target: Neu5Ac(a2-8)Neu5Ac(a2-8)Neu5Ac
# In short: as §1
# [36] = biological target: Neu5Ac(a2-8)Neu5Ac(a2-8)Neu5Ac(a2-3)Gal(b1-4)Glc
# In short: as §1
# [37] = biological target: Neu5Ac(a2-8)Neu5Ac(a2-8)Neu5Ac(a2-3)[Gal(b1-3)GalNAc(b1-4)]Gal(b1-4)Glc
# In short: as §1
# [38] = biological target: Neu5Ac(a2-8)Neu5Ac(a2-8)Neu5Ac(a2-3)[GalNAc(b1-4)]Gal(b1-4)Glc
# In short: as §1
# [39] = biological target: Neu5Ac(a2-8)Neu5Ac(a2-8)Neu5Ac(a2-8)Neu5Ac(a2-3)[GalNAc(b1-4)]Gal(b1-4)Glc
# In short: as §1
# [40] = biological target: Neu5Ac(a2-8)Neu5Gc(a2-3)Gal(b1-4)GlcNAc
# In short: as §1
# Neu5Ac(b1-6)GalNAc = biological target: Neu5Ac(b1-6)GalNAc
# In short: as §1
# [41] = biological target: Neu5Ac(b2-6)Gal(b1-4)GlcNAc
# In short: as §1
# Neu5Ac(b2-6)GalNAc = biological target: Neu5Ac(b2-6)GalNAc
# In short: as §1
binder,measurement,setting,value
B1,glycan array binding signal (z-score),[1],-0.263
same,glycan array binding signal (z-score),[2],0.151
same,glycan array binding signal (z-score),[3],-0.259
same,glycan array binding signal (z-score),[4],-0.267
same,glycan array binding signal (z-score),[5],-0.234
same,glycan array binding signal (z-score),[6],-0.111
same,glycan array binding signal (z-score),[7],-0.295
same,glycan array binding signal (z-score),[8],-0.277
same,glycan array binding signal (z-score),[9],-0.292
same,glycan array binding signal (z-score),[10],-0.291
same,glycan array binding signal (z-score),[11],-0.269
same,glycan array binding signal (z-score),[12],-0.167
same,glycan array binding signal (z-score),[13],-0.266
same,glycan array binding signal (z-score),[14],0.1
same,glycan array binding signal (z-score),[15],0.828
same,glycan array binding signal (z-score),[16],0.112
same,glycan array binding signal (z-score),[17],-0.208
same,glycan array binding signal (z-score),[18],-0.23
same,glycan array binding signal (z-score),[19],1.02
same,glycan array binding signal (z-score),[20],-0.221
same,glycan array binding signal (z-score),[21],-0.255
same,glycan array binding signal (z-score),[22],-0.271
same,glycan array binding signal (z-score),[23],-0.273
same,glycan array binding signal (z-score),[24],-0.255
same,glycan array binding signal (z-score),Neu5Ac(a2-6)GalNAc,-0.289
same,glycan array binding signal (z-score),[25],-0.275
same,glycan array binding signal (z-score),[26],-0.265
same,glycan array binding signal (z-score),[27],-0.277
same,glycan array binding signal (z-score),[28],-0.251
same,glycan array binding signal (z-score),Neu5Ac(a2-8)Neu5Ac,-0.271
same,glycan array binding signal (z-score),[29],-0.268
same,glycan array binding signal (z-score),[30],-0.257
same,glycan array binding signal (z-score),[31],-0.286
same,glycan array binding signal (z-score),[32],-0.274
same,glycan array binding signal (z-score),[33],-0.238
same,glycan array binding signal (z-score),[34],-0.293
same,glycan array binding signal (z-score),[35],-0.284
same,glycan array binding signal (z-score),[36],-0.289
same,glycan array binding signal (z-score),[37],-0.237
same,glycan array binding signal (z-score),[38],-0.231
same,glycan array binding signal (z-score),[39],-0.25
same,glycan array binding signal (z-score),[40],-0.269
same,glycan array binding signal (z-score),Neu5Ac(b1-6)GalNAc,-0.342
same,glycan array binding signal (z-score),[41],-0.261
same,glycan array binding signal (z-score),Neu5Ac(b2-6)GalNAc,-0.278
